Measurements published in PMC12136788.
The list shows a part of the results.

B1: chr2:128192346:128192447:+|3pUTR|ENSG00000136731|msi1|total|mutant (ssRNA)
RNA: GGGAGUUCUACAGUCCGACGAUCAGAAAAUGAUGUUACCACUAAAAUAUUUUCUCCAAGAAGGCAUACUGUAACAGAAAAGACCGGUAAGAUAUUUUUUUCCCAAGAAGUAAGAAUUGAUUGUGCUGAAUGUUCAAACUCUGGCAACAGAGGAUUGAGCAUCA
B2: chr3:152464585:152464701:+|3pUTR|ENSG00000152601|msi1|total|mutant (ssRNA)
RNA: GGGAGUUCUACAGUCCGACGAUCAUAUUUUUGAAAUCCCUGAGUAUCAGGCCUUGUUAUAAAUAAGCUGCAUAAUCAAUAAACCGAACAAGGGACUUUUUGUUGAUAAUCCAAAUACUCAAAGUUUACGUAAUGAAAAUUAUACAACAGAGGAUUGAGCAUCA
B3: chr15:22826343:22826444:+|3pUTR|ENSG00000170113|msi1|total|mutant (ssRNA)
RNA: GGGAGUUCUACAGUCCGACGAUCAAAGUCCAUUACUCUUUUUAUUGGCUCUUGCAGGUUUUGUGUUUUAUCAUCAGUGCUUUCCGAAAUGCAGGCCUUAACUUACUGAACUGAACUUUCUGAAAACGUAAUGCCGCAGUAUCACAACAGAGGAUUGAGCAUCA
B4: chrX:153456492:153456651:-|CDS|ENSG00000213397|control|control|control (ssRNA)
RNA: GGGAGUUCUACAGUCCGACGAUCAUGGAGCACUUCGAGGACACCAGGGAGAAGAACGAGGCCUUGCUGGGGGAGCUCUUCUCUAGCCCCCACCUGCAGAUGCUCCUGAAUCCAGAGUGCGACCCGUGGCCCCUGGACAUGCAGCAACAGAGGAUUGAGCAUCA
B5: ENSG00000167767:stop:overlap|stop_codon|ENSG00000167767|stop_codon|NA|stop_codon (ssRNA)
RNA: GGGAGUUCUACAGUCCGACGAUCGCGCUGUGCAGUCCAGGUGCAAAACCGCCCCUUCCCUCCCCUACCCCUUAUGUUCCCUGUAGCUGCCUCCAGAUCAGGCCUCUCCAAGGCCCCCUCCCGAAAGAAGAAGGGCAGCAAAGGCAACAGAGGAUUGAGCAUCA
B6: chr19:14961309:14961997:-|three_prime_utr|ENSG00000105143|control|control|control (ssRNA)
RNA: GGGAGUUCUACAGUCCGACGAUCGAUUCACUUACCCACUCACCAACUCAUUCAUUCAUGUCUUUCUGGGAUGAUUUCAUCACUAGUUGACUUCCUUGUUCAUCUGUUCAUUCAUUCAUUCUUCUAUGCAUUGGUUAGUUCAUGCAACAGAGGAUUGAGCAUCA
B7: chr8:79641408:79641533:+|CDS|ENSG00000104435|unk|total|mutant (ssRNA)
RNA: GGGAGUUCUACAGUCCGACGAUCCCAGGCUUUUGAGCUGAUCUUGAAGCCACCAUCUCCUAUCUCAGAAGCCCCACGAACUUCCGCUUCUCCAAAGAAGAAAGACCUGUCCCUGGAGGAGAUCCAGAAGAAACUGGAGGCUGCCAACAGAGGAUUGAGCAUCA
B8: chr17:63968022:63968355:-|CDS|ENSG00000007314|control|control|control (ssRNA)
RNA: GGGAGUUCUACAGUCCGACGAUCGAAAAAGCUGUCGGAUGUGAUGAUCCUCACUGUCUUCUGCCUGAGCGUCUUUGCGCUGGUAGGACUGCAGCUCUUCAUGGGAAACCUGAGGCAGAAGUGUGUGCGCUGGCCCCCGCCGUUCAACAGAGGAUUGAGCAUCA
B9: ENSG00000156976:stop:overlap|stop_codon|ENSG00000156976|stop_codon|NA|stop_codon (ssRNA)
RNA: GGGAGUUCUACAGUCCGACGAUCCUUUGGUUAUAAAUUAUGAUCUACCUACCAAUCGUGAAAACUAUAUUCACAGGAGUCGAUAGCAGCAGUUGGUGACGAGAUGGCACUCAGAAACGGCGUUGACGUAAUUUAGGACGUGGACAACAGAGGAUUGAGCAUCA
B10: chr10:71816642:71816777:-|3pUTR|ENSG00000197746|msi1_unk|total|mutant (ssRNA)
RNA: GGGAGUUCUACAGUCCGACGAUCUUGUUUGGGGUUCUGUGGGUUUGGGUGGGAAGAGGGCCAUCUGCCUGAAUGUAACCUGCCCGCUCUCCGAAGGCCCUGCGGGCCUGGCUUGUGUGAGCGUGUGGACAGUGGUGGCCGCGCCAACAGAGGAUUGAGCAUCA
B11: chr11:73394502:73394603:+|CDS|ENSG00000054967|msi1|total|mutant (ssRNA)
RNA: GGGAGUUCUACAGUCCGACGAUCCACCAUCUCCACACCGUGCAGGGCCUGGCCUCGCUCUCUGGCCCCUGCUGCUCCCGCUGCCGCCAGAAGAAGUGGCCCGAGGUGCUGCUGUCCCCUGAGGCUGCCGCCGCCACUACUCCUCAACAGAGGAUUGAGCAUCA
B12: chr12:103777333:103777434:-|3pUTR|ENSG00000111696|msi1|FALSE|unique (ssRNA)
RNA: GGGAGUUCUACAGUCCGACGAUCUCCUGAACAUUUACGGGCUAUGCAUUGGGAACUGCAGGGGCACAGUGAUGGGCAAAGAUUAGCUGCUUCCAGAAGGCUGAUUUCGUGGGCUCCACAAUGGUAAAACGCUGCUGUGAGUGGCAACAGAGGAUUGAGCAUCA
B13: chr18:62902975:62903076:+|CDS|ENSG00000081913|unk|FALSE|unique (ssRNA)
RNA: GGGAGUUCUACAGUCCGACGAUCAGUGGACUUUCUACAGCAUGUUACUCAGCUUGACCUACGAGACAAUAAGCUUGGUGAUCUAGAUGCUAUGAUUUUCAACAACAUUGAAGUUUUACACUGUGAAAGGAAUCAACUGGUCACCAACAGAGGAUUGAGCAUCA
B14: chr16:30610213:30610351:-|CDS|ENSG00000289491|control|control|control (ssRNA)
RNA: GGGAGUUCUACAGUCCGACGAUCCUCCGGUCAAUAAAAUCGAUAGCUGGAAGCUGCCUGUGUUCCAGGCAAAGGCGGUGCGGUAGCAGCGCCGCCAUUUUCCCCGAAGGCAUCUUCCGGUGCCUUUCACCCAAGUUCGGGCAGCAACAGAGGAUUGAGCAUCA

Each binder was assayed against MSI1 full-length (mouse, UniProt Q61474 1-362) (assay: nsRBNS (natural sequence RNA bind-n-seq); RBNS binding buffer (assumed for nsRBNS): 25 mM Tris pH 7.5, 150 mM KCl, 3 mM MgCl2, 0.01% Triton X-100, 500 ug/ml BSA, 20 U/ml SUPERase-In, 4 C; UNK is unkempt and MSI1 is Musashi-1; names of the RNAs are library labels; protein concentration not given here; high values mean tight binding).
Sequence of UniProt Q61474 (Q61474 whole entry): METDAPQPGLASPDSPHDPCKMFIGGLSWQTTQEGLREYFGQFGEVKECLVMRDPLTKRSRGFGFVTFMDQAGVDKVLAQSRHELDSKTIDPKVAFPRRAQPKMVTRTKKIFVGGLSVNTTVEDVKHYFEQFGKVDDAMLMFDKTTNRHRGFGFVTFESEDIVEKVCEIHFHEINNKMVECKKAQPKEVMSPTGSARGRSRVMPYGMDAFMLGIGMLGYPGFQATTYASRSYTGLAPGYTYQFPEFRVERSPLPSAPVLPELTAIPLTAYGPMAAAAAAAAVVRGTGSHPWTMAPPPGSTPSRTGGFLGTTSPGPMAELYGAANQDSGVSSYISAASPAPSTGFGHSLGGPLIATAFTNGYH
Binder B1 has a binding signal of 0.521 enrichment R.
Work on B2 yielded a binding signal of 0.736 enrichment R.
Work on B3 yielded a binding signal of 0.406 enrichment R.
In the case of B4, the binding signal is reported as 0.408 enrichment R.
B5 showed a binding signal of 1.32 enrichment R.
For B6, the binding signal was 0.578 enrichment R.
In the case of B7, the binding signal is reported as 0.474 enrichment R.
For B8, the binding signal was 0.38 enrichment R.
For B9, the binding signal was 0.441 enrichment R.
Binder B10 has a binding signal of 0.576 enrichment R.
Binder B11 has a binding signal of 0.758 enrichment R.
B12 showed a binding signal of 0.542 enrichment R.
Binder B13 has a binding signal of 0.242 enrichment R.
Binder B14 has a binding signal of 0.394 enrichment R.
